# PMC6919601, “Identification of Plasmodium dipeptidyl aminopeptidase allosteric inhibitors by high throughput screening” (PLoS ONE, 2019)
# The campaign covered roughly 110,000 compounds. About 230 (0.21%) showed an effect of 50% or more. Some of the results follow.
# Target: DPAP1 (Plasmodium falciparum, UniProt Q8IIJ9)
# Experiment: primary screen, percent inhibition; read by cleavage of a fluorogenic dipeptide substrate; higher = more effect of the substance
# Set-up: species or system P. falciparum D10 trophozoite lysates; single well
# 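Further: 30 min substrate incubation versus DMSO and 10 µM JCP410 controls.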
# Sequence of DPAP1 (Q8IIJ9 whole entry, looked up): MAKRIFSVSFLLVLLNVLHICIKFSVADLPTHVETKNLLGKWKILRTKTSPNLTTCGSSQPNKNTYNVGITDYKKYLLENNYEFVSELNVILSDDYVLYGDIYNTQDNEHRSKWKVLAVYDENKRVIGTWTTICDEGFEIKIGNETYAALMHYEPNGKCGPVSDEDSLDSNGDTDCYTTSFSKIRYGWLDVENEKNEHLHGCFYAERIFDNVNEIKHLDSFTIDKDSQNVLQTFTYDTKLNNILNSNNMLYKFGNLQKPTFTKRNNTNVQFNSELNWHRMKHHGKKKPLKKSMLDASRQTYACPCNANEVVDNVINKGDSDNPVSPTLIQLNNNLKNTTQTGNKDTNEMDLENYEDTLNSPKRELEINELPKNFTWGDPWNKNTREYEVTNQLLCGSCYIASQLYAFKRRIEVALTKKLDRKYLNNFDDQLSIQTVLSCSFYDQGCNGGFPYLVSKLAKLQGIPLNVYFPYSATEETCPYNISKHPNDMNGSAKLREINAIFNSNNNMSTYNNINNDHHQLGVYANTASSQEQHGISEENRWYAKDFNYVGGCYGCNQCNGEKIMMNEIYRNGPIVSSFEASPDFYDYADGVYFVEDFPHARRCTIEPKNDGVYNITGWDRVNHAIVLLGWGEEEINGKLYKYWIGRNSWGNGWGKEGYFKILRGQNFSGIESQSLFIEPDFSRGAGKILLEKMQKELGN
row,Structure (SMILES),% Inhibition @ 10 uM [%]
1,Cc1cc(Oc2nc3ccccn3c(=O)c2/C=C(\C#N)C(=O)NCCCOC(C)C)ccc1Cl,11
2,Cc1ccc(SC(C)C(=O)N2CCCC2)cc1 (centres unmarked),-4.43
3,CN1CCN(S(=O)(=O)c2ccc(Cl)c([N+](=O)[O-])c2)CC1,0.827
4,Cc1cc(CN2CCCCC2)oc1C(=O)O,-0.711
5,COc1ccc(CCNCc2c(C(=O)O)n(Cc3ccc(C)cc3)c3cc(C)ccc23)cc1OC,4.92
6,COCCCNC(=O)CSc1nc2ccccc2c2nc(CCn3c(C)nc4ccccc43)nn12,-0.112
7,COc1cc(-c2ccc(NS(C)(=O)=O)c(OC)c2)ccc1NS(C)(=O)=O,4.83
8,CC1CCCC(NC(=O)Cn2c(=O)c3cccn3c3cccnc32)C1C (centres unmarked),-2.1
9,CCOc1ccccc1NC(=O)c1cc2c(ccc3ccccc32)o1,-4.76
10,CC(C)(C)c1cc(C(=O)NCCCn2ccnc2)cc(C(C)(C)C)c1,0.983
11,CC1(C)CC(=O)C2=C(C1)NC(=O)CC2c1cccc(F)c1 (centres unmarked),-2.56
12,COC(=O)c1ccc(CO/N=C(\NC(C)=O)c2nonc2NC(C)=O)cc1,2.7
13,CCOc1ccc(N2C(=O)CC(N3CCCCC3C)C2=O)cc1 (centres unmarked),2.36
14,COc1cccc(NC(=O)c2cccc(OC)c2)c1,-1.25
15,Fc1ccccc1Cn1cnc2ccccc21,-2.24
16,O=C1/C(=C\c2ccc(Br)cc2)S(=O)(=O)c2ccccc21,1.57
17,C=CC[n+]1c(/C=C2\C=CC=CN2C)sc2ccccc21,-1.11
18,Cc1onc(-c2ccccc2Cl)c1C(=O)N1CCN(c2ccccc2)CC1,-3.35
19,O=C1c2ccccc2C(=O)N1CC(O)CNc1ccc(Br)cc1 (centres unmarked),-7.63
20,OCCNC1CCCc2c1[nH]c1ccc(Br)cc21 (centres unmarked),-4.5
21,CC1(C)CC(=O)c2c(oc3c2cc(NS(=O)(=O)c2cccs2)c2ccccc23)C1,13.3

row,Structure (SMILES),% Inhibition @ 10 uM [%]
1,CCC(C)NC(=O)c1sc2ncn(CC(=O)NCCCOC)c(=O)c2c1C (centres unmarked),-0.458
2,CCC(C(=O)NC1CCCCCC1)n1sc2ccccc2c1=O (centres unmarked),1.61
3,CC(C)N1C(=O)/C(=C\c2cccc(O)c2)S/C1=N/c1ccccc1,-2.15
4,CCSc1nnc(NC(=O)C2CCN(S(=O)(=O)c3c(C)nc(O)nc3O)CC2)s1,1.76
5,Cc1ccc2[nH]c(C(=O)O)c(CCN)c2c1,5.54
6,CCOCCCNC(=O)C(C)n1nc(C)c2c(C)n(-c3ccccc3)nc2c1=O (centres unmarked),1.45
7,Cc1sc2ncnc(SCC(=O)NCCc3ccccc3)c2c1C,-11
8,CCN1CCN(C(=O)C2CCC(C/N=c3/c(N4CCC(C)CC4)c(O)c3=O)CC2)CC1 (centres unmarked),-0.447
9,CCN(CC)c1ccc(C=C2C(=O)NC(=O)NC2=O)c(OC)c1,-0.414
10,CCn1c(=S)[nH]c2c(c1=O)C1(CCCC1)Cc1ccccc1-2,-0.711
11,CCCN(CCC)CCNC(=O)Cn1ncc2c1-c1cc(C)ccc1OC2,-5.72
12,CCSc1nc2c(c(=O)n1-c1ccc(OC)cc1)C1(CCCC1)Cc1ccccc1-2,6.49
13,COCCn1c(CCC(=O)O)ccc1-c1ccc(OC)cc1,-2.92
14,CCOC(=O)c1ccc2ncc(C(=O)OCC)c(NCCCOC(=O)c3ccc(Cl)cc3)c2c1,-3.97
15,NS(=O)(=O)c1ccc(CCNC(=O)C2CCN(c3cnccn3)CC2)cc1,-6.6
16,N#CC1=C(N)OC2=C(C(=O)CC(c3ccccc3)C2)C1c1cccc(C(F)(F)F)c1 (centres unmarked),-0.261
17,N#Cc1cc2c(N)c(C(=O)Nc3ccccc3Oc3ccccc3)sc2nc1N,28.2
18,CC[C@H](NC(=O)[C@H](CS(=O)(=O)Cc1ccccc1)O[Si](C(C)C)(C(C)C)C(C)C)C(=O)c1nc2ccccc2o1,-0.214
19,CC(C)C(=O)Nc1ccc(NC(=O)Cc2ccccc2)cc1,-5.46
20,CCOC(=O)N1CCC(/N=c2\c(O)c(O)\c2=N/C(C)CC)CC1 (centres unmarked),0.277
21,O=C(Nc1ccc(Cc2ccc(NC(=O)C3CCCO3)cc2)cc1)C1CCCO1 (centres unmarked),0.173

row,Structure (SMILES),% Inhibition @ 10 uM [%]
1,CCOc1ccc(C(=O)c2oc3ccccc3c2NC(=O)c2nc(S(C)(=O)=O)ncc2Cl)cc1,0.569
2,O=C(Nc1ccc(F)cc1)c1ccc(Cl)cc1,1.63
3,COc1cc(OC)cc(C2=N/C(=C\c3sccc3C)C(=O)O2)c1,-5.43
4,COc1cccc(CNCc2c(C(=O)O)n(Cc3ccccc3)c3ccccc23)c1,5.09
5,CCOC(=O)c1cc(S(=O)(=O)N2CCN(c3ncccn3)CC2)cn1C,-4.68
6,NCC1OCCc2ccccc21 (centres unmarked),1.84
7,CCCCNC(=S)NCc1ccc2c(c1)cc(C)n2C,1.55
8,O=S(=O)(Nc1ccc(Cl)cc1Cl)c1ccc(F)cc1,-2.82
9,CC(NC(=O)CCn1ccc2cc(S(=O)(=O)N3CCCC3)ccc21)c1ccccc1 (centres unmarked),-0.486
10,CC1(C)CC(=O)C2=C(C1)N(c1ccc(Br)cn1)C(N)=C(C#N)C2c1ccsc1 (centres unmarked),1.4
11,CCN1CCC(N2CCCCC2)CC1,-5.94
12,CSc1ccc(CCNC(=O)C2CCCN(S(=O)(=O)N(C)C3CCCCC3)C2)cc1 (centres unmarked),-7.53
13,O=S(=O)(NC1CCC(NS(=O)(=O)c2ccc(Cl)cc2)CC1)c1ccc(Cl)cc1 (centres unmarked),5.26
14,Cc1ccc(CNC(=O)CCCCCNc2nc(S)nc3ccccc23)o1,0.925
15,CC1CCCN(c2nc3c(S(=O)(=O)c4cccc(Cl)c4)nnn3c3ccsc23)C1 (centres unmarked),-4.34
16,O=C(O)C1(c2ccccc2)CCOCC1,0.884
17,O=C(c1ccccc1)c1cccn1CC(=O)N1CCC(Cc2ccccc2)CC1,2.76
18,CCCCNC(=O)CSc1nc2sc(C(=O)OCC)c(C)c2c(=O)n1Cc1ccccc1,-0.284
19,CCCNC(=O)Cn1nc(C)c2c(C)n(-c3ccc(C)cc3)nc2c1=O,-6.53
20,COC(=O)c1cc(S(=O)(=O)NC2CCCCC2C)c[nH]1 (centres unmarked),2.81
